Assay results taken from article PMC10959724.
Where a chain is given by its changes, count along the chain named. Numbers in names are those of the source. No constants are given. Whether binding was seen depends on the method and setting. In cells and extracts the contact can be indirect. Some results given as binding are weak or reduced against the parent protein; the word gives no strength. Sequences can lack the tags named with a protein. Values belong to the binder of their own block, whether it stands above or below them.

Amino acid sequences for entries named in this document (tags omitted).
UniProt Q96CV9: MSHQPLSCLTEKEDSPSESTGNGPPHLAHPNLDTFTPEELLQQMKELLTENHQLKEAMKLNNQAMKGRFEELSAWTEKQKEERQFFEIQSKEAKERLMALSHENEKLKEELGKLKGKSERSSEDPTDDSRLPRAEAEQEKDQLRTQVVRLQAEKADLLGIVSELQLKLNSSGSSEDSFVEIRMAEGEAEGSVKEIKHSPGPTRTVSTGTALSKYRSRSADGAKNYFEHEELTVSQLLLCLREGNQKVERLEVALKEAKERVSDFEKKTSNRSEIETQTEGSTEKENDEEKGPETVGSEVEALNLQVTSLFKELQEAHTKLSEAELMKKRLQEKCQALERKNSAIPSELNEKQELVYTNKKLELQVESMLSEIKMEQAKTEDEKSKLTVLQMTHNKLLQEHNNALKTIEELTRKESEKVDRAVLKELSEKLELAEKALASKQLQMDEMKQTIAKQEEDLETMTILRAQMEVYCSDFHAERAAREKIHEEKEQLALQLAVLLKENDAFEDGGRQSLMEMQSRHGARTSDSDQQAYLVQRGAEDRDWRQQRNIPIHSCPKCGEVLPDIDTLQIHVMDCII

Legend:
Assay in all cases: FRET or BRET; LuTHy-BRET in live HEK293 cells, 48 h after transfection; optineurin or TANK as NanoLuc donors, TBK1 and mutants as mCitrine-Protein A acceptors; donor saturation assays (increasing acceptor plasmid, constant donor) and single-point assays (acceptor in excess); positive if corrected BRET ratio >= 0.01
[1] = target: T1, TRAF family member-associated NF-kB activator (TANK), NanoLuc-tagged (UniProt Q92844)
T1 sequence: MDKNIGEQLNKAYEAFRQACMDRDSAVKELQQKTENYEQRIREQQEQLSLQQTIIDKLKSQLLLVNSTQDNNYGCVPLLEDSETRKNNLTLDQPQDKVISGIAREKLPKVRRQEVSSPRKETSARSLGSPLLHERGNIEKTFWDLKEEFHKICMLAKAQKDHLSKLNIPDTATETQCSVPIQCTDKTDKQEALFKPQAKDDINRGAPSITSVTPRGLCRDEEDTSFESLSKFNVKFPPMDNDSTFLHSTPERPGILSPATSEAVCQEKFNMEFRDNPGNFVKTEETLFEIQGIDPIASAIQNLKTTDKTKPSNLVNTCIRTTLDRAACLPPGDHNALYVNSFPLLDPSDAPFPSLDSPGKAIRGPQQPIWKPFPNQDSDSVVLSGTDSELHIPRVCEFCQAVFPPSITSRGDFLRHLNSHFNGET

[2] = target: optineurin, NanoLuc-tagged (UniProt Q96CV9)
[3] = target: optineurin, NanoLuc-tagged, Q96CV9; details: remark: other sources report otherwise

B1: TBK1 del689-714, mCitrine-Protein A fusion (enzyme, UniProt Q9UHD2)
chain: MQSTSNHLWLLSDILGQGATANVFRGRHKKTGDLFAIKVFNNISFLRPVDVQMREFEVLKKLNHKNIVKLFAIEEETTTRHKVLIMEFCPCGSLYTVLEEPSNAYGLPESEFLIVLRDVVGGMNHLRENGIVHRDIKPGNIMRVIGEDGQSVYKLTDFGAARELEDDEQFVSLYGTEEYLHPDMYERAVLRKDHQKKYGATVDLWSIGVTFYHAATGSLPFRPFEGPRRNKEVMYKIITGKPSGAISGVQKAENGPIDWSGDMPVSCSLSRGLQVLLTPVLANILEADQEKCWGFDQFFAETSDILHRMVIHVFSLQQMTAHKIYIHSYNTATIFHELVYKQTKIISSNQELIYEGRRLVLEPGRLAQHFPKTTEENPIFVVSREPLNTIGLIYEKISLPKVHPRYDLDGDASMAKAITGVVCYACRIASTLLLYQELMRKGIRWLIELIKDDYNETVHKKTEVVITLDFCIRNIEKTVKVYEKLMKINLEAAELGEISDIHTKLLRLSSSQGTIETSLQDIDSRLSPGGSLADAWAHQEGTHPKDRNVEKLQVLLNCMTEIYYQFKKDKAERRLAYNEEQIHKFDKQKLYYHATKAMTHFTDECVKKYEAFLNKSEEWIRKMLHLRKQLLSLTNQCFDIEEEVSKYQEYTNELQETLPQKMFTASSGIKHTMTPIYPSSNTLVEMTLGSLTMDGGLRNVDCL
binding [1]: no binding | binding [2]: no binding

B4: TBK1 R47H kinase domain mutant, mCitrine-Protein A fusion (enzyme, UniProt Q9UHD2 1-729)
chain: MQSTSNHLWLLSDILGQGATANVFRGRHKKTGDLFAIKVFNNISFLHPVDVQMREFEVLKKLNHKNIVKLFAIEEETTTRHKVLIMEFCPCGSLYTVLEEPSNAYGLPESEFLIVLRDVVGGMNHLRENGIVHRDIKPGNIMRVIGEDGQSVYKLTDFGAARELEDDEQFVSLYGTEEYLHPDMYERAVLRKDHQKKYGATVDLWSIGVTFYHAATGSLPFRPFEGPRRNKEVMYKIITGKPSGAISGVQKAENGPIDWSGDMPVSCSLSRGLQVLLTPVLANILEADQEKCWGFDQFFAETSDILHRMVIHVFSLQQMTAHKIYIHSYNTATIFHELVYKQTKIISSNQELIYEGRRLVLEPGRLAQHFPKTTEENPIFVVSREPLNTIGLIYEKISLPKVHPRYDLDGDASMAKAITGVVCYACRIASTLLLYQELMRKGIRWLIELIKDDYNETVHKKTEVVITLDFCIRNIEKTVKVYEKLMKINLEAAELGEISDIHTKLLRLSSSQGTIETSLQDIDSRLSPGGSLADAWAHQEGTHPKDRNVEKLQVLLNCMTEIYYQFKKDKAERRLAYNEEQIHKFDKQKLYYHATKAMTHFTDECVKKYEAFLNKSEEWIRKMLHLRKQLLSLTNQCFDIEEEVSKYQEYTNELQETLPQKMFTASSGIKHTMTPIYPSSNTLVEMTLGMKKLKEEMEGVVKELAENNHILERFGSLTMDGGLRNVDCL
binding [1]: binds | binding [2]: binds

B5: TBK1 p.E696K variant, mCitrine-Protein A fusion (enzyme, UniProt Q9UHD2 1-729)
chain: B4 chain with H47R, E696K
binding [1]: binds

More lines, now with the values ahead:

binding [1]: binds | binding [2]: binds
B2: wildtype TBK1 (TANK-binding kinase 1), mCitrine-Protein A fusion (enzyme, UniProt Q9UHD2 1-729)
chain: B4 chain with H47R

binding [3]: no binding
B3: TBK1 p.E696K variant, mCitrine-Protein A fusion, Q9UHD2 1-729 (enzyme)
chain: B4 chain with H47R, E696K
